Where a name gives a salt, the structure may show the parent alone. ± gives the standard deviation of the averaged measurements. The full ranking holds about 2,600 compounds; the median of “total cell number (DAPI+ nuclei) relative to DMSO vehicle control” is about -1.4, and the lowest 2% start at about -23. This is one part of the list.
These compounds were tested on jimpy (Plp1 jimpy) mouse iPSC-derived oligodendrocyte progenitor cells (assay: total cell number (DAPI+ nuclei) relative to DMSO vehicle control (SDs above negative control mean); higher = more surviving cells). Conditions: 10 µM; 3 days.
Method: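 Primary phenotypic screen of >3,000 bioactive compounds (Selleck L1700 and Sigma LO1280 libraries) at a single dose of 10 µM. Compounds were added to jimpy (Plp1 mutant) mouse iPSC-derived OPCs at the start of thyroid hormone-induced oligodendrocyte differentiation, one well per compound in 384-well plates. After 3 days cells were stained for MBP, Sox10 and DAPI and imaged with an Operetta system. MBP+ oligodendrocyte number and total cell number were expressed as the number of SDs above the mean of the DMSO negative control on the same plate (n=16 control wells per plate). Hits were defined as >=4 SD for oligodendrocytes and >=2 SD for total cells.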

Structure (SMILES)	total cell number
CN1CC2c3ccccc3Oc3ccc(Cl)cc3C2C1 (centres undefined) [Asenapine]	-10.5
COC1=C2C[C@@H](C)C[C@H](OC)[C@H](O)[C@@H](C)/C=C(\C)[C@H](OC(N)=O)[C@@H](OC)/C=C\C=C(/C)C(=O)NC(=CC1=O)C2=O [Geldanamycin]	-12.3
CCC(CC)CC1(C(=O)Nc2ccccc2SC(=O)C(C)C)CCCCC1	-1.86
CN1[C@@H](CC(=O)c2ccccc2)CCC[C@H]1C[C@H](O)c1ccccc1 [alpha-Lobeline hydrochloride]	-1.52
Cn1cc(-c2ccc3nnc(C(F)(F)c4ccc5ncccc5c4)n3n2)cn1	-3.9
c1ccc2[nH]c(-c3cscn3)nc2c1 [Thiabendazole]	0.92
COc1cc(C(O)C(=O)O)ccc1O (racemic) [(±)-Vanillylmandelic acid]	-0.443
CC(=O)C(C)=O [2,3-Butanedione]	-1.17
CSc1nc(N)c2ncn([C@@H]3O[C@H](COP(=O)(O)OP(=O)(O)OP(=O)(O)O)[C@H](O)C3O)c2n1 (some centres undefined) [2-Methylthioadenosine triphosphate tetrasodium]	1.81
Cn1c(=O)cc(N2CCC[C@@H](N)C2)n(Cc2ccccc2C#N)c1=O [Alogliptin]	-1.27
CC1(C)S[C@@H]2[C@H](NC(=O)[C@H](NC(=O)N3CCN(S(C)(=O)=O)C3=O)c3ccccc3)C(=O)N2[C@H]1C(=O)O [Mezlocillin Sodium]	0.711
CCCCCCCN(CC)CCCC(O)c1ccc(NS(C)(=O)=O)cc1 (centres undefined) [Ibutilide Fumarate]	0.306
Cc1nnc(C(C)C)n1C1C[C@H]2CC[C@@H](C1)N2CC[C@H](NC(=O)C1CCC(F)(F)CC1)c1ccccc1 (stereo in doubt) [Maraviroc]	-0.465 ± 0.011
COc1cc(Nc2ncc(F)c(Nc3ccc4c(n3)N(COP(=O)(O)O)C(=O)C(C)(C)O4)n2)cc(OC)c1OC [Fostamatinib (R788)]	-11.3
COc1ccc(-c2cc(=O)c3c(O)cc(O[C@@H]4O[C@H](CO[C@@H]5O[C@@H](C)[C@H](O)[C@@H](O)[C@H]5O)[C@@H](O)[C@H](O)[C@H]4O)cc3o2)cc1O [Diosmin]	-1.95
O=C(Nc1ccc2c(c1)CCN(Cc1ncn[nH]1)C2)c1ccccc1-c1ccc(C(F)(F)F)cc1	-0.98
CCOC(=O)C1=C[C@]2(CC)CCCN3CCc4c(n1c1ccccc41)[C@@H]32 [Vinpocetine]	-1.4
CC(C)c1cc(C(=O)N2Cc3ccc(CN4CCN(C)CC4)cc3C2)c(O)cc1O	-25.7
Cc1cccc(CN2CCN(C(c3ccccc3)c3ccc(Cl)cc3)CC2)c1 (centres undefined) [Meclizine 2HCl]	-17.9
CC(C)Cc1ccc(C(C)C(=O)O)cc1 (racemic) [(±)-Ibuprofen]	-0.452
COc1cnc(NS(=O)(=O)c2ccc(N)cc2)nc1 [Sulfameter]	-2.94
COc1cc(CCC(C)=O)ccc1O [Vanillylacetone]	2.45
O=NN(CCCl)C(=O)NC1CCCCC1 [Lomustine]	-4.15
CC1CNCCN1S(=O)(=O)c1cccc2cnccc12 (centres undefined)	-1.12
CNCCC(Oc1ccccc1OC)c1ccccc1 (centres undefined) [Nisoxetine hydrochloride]	-1.44

Structure (SMILES)	total cell number
CCCCCCCC/C=C\CCCCCCCC(=O)NCCc1ccc(O)c(O)c1 [N-Oleoyldopamine]	-10.6
CCCCCCCCc1ccc(CCC(N)(CO)CO)cc1 [Fingolimod (FTY720) HCl]	-16.4
COc1cc(C(=O)NC2CCCNC2)cc(OC)c1OC (centres undefined) [Troxipide]	-0.832
C[C@]12CC[C@@H]3c4ccc(O)cc4CC[C@H]3[C@@H]1CCC2=O [Estrone]	5.32 ± 10
Nc1ncnc2c1c(-c1cnc3[nH]ccc3c1)nn2C1CCCC1	-11.7
COc1ccc2cc1Oc1ccc(cc1)C[C@H]1c3cc(c(OC)cc3CCN1C)Oc1c(OC)c(OC)cc3c1[C@H](C2)N(C)CC3 [Tetrandrine]	-12.9
COc1cc(OC)cc(-c2cc3cnc(N)nc3nc2NC(=O)NC(C)(C)C)c1	-5.24
O=P(O)(O)C(Cl)(Cl)P(=O)(O)O [Clodronic acid]	-0.765
CCCCOc1cc(C(=O)NCCN(CC)CC)c2ccccc2n1 [Dibucaine HCl]	-0.446
N#C[C@@H]1C[C@@H]2C[C@@H]2N1C(=O)[C@@H](N)C12CC3CC(CC(O)(C3)C1)C2 [Saxagliptin]	2.1
CCS(=O)(=O)CCn1c([N+](=O)[O-])cnc1C [Tinidazole]	0.55
O=C1CCc2cc(OCCCCc3nnnn3C3CCCCC3)ccc2N1 [Cilostazol]	1.61 ± 3.9
C[C@@]12C[C@@]3(O)O[C@@H](O1)[C@]1(COC(=O)c4ccccc4)[C@H]3C[C@@]12O[C@@H]1O[C@H](CO)[C@@H](O)[C@H](O)[C@H]1O [Paeoniflorin]	-1.48
Cc1ccccc1-n1c(Cn2nc(-c3cccc(O)c3)c3c(N)ncnc32)nc2cccc(C)c2c1=O	-10.8
COc1cc(Nc2nc3ccccc3nc2NS(=O)(=O)c2ccc(NC(=O)c3ccc(C)c(OC)c3)cc2)cc(OC)c1	-0.366
CCC1=C(C)CN(C(=O)NCCc2ccc(S(=O)(=O)NC(=O)N[C@H]3CC[C@H](C)CC3)cc2)C1=O [Glimepiride]	1.17
Cc1coc2c1C(=O)C(=O)c1c-2ccc2c(C)cccc12 [Tanshinone I]	0.0128
CC1(C)NC(=O)N(c2ccc([N+](=O)[O-])c(C(F)(F)F)c2)C1=O [Nilutamide]	-1.93
Cc1[nH]c(/C=C2\C(=O)Nc3ccc(S(=O)(=O)N(C)c4cccc(Cl)c4)cc32)c(C)c1C(=O)N1CCN(C)CC1	-26.7
O=C(/C=C\n1cnc(-c2cc(C(F)(F)F)cc(C(F)(F)F)c2)n1)NNc1cnccn1	-13.4
CN(C)Cc1ccc(-c2nc3cccc4c3n2CCNC4=O)cc1	-3.3
CC(C)C[C@H](NC(=O)[C@H]1O[C@@H]1C(=O)O)C(=O)NCCCCN=C(N)N	-3.4 ± 0.35
COC(=O)[C@@H]1[C@H]2C[C@H]3c4[nH]c5ccccc5c4CCN3C[C@@H]2CC[C@@H]1O [Yohimbine hydrochloride]	-2.94
COC(=O)[C@@H]1[C@H]2C[C@H]3c4[nH]c5ccccc5c4CCN3C[C@@H]2CC[C@@H]1O [Yohimbine HCl]	-6.96

— the supplement of paper PMC6135742
